Measurements reported in patent publication US20140099634A1, “USE OF PRE-MRNA SPLICING IN PLATELET CELLS FOR THE DIAGNOSIS OF DISEASE” (priority 2007, published 2014).

Test system: platelets
Test: Plasma clot formation by activated platelets or their membranes
Assay type: cell-based, human

CCN1/C(=C/C(C)=O)Sc2ccc(OC)cc21 [Tg003, (Z)-1-(3-Ethyl-5-methoxy-2,3-dihydrobenzothiazol-2-ylidene)propan-2-one]
accelerated clotting of human plasma by membranes of stimulated platelets: blocked
